Source: patent publication US20110245334A1, “USE OF RACEMATES OF PINOCEMBRIN IN PREPARING MEDICAMENTS FOR TREATING STROKE” (CSPC Zhonggi Pharmaceutical Technology (Shijiazhuang) Co. …, priority 2008, published 2011)
Like-named read-outs stand apart in the source and are kept apart here.

What was measured:
[1] = test system: Spontaneously Hypertensive Rats of Stroke Prone (SHRSP); assay: Scores of neurological symptoms after stroke onset in SHRSP; assay type: in vivo, rat
Experimental: Scores of neurological symptoms after stroke onset:
After stroke onset, the scores during 14 days were recorded for every animal, and the scores in the treated groups are compared with scores in the control group.

[2] = test system: Spontaneously Hypertensive Rats of Stroke Prone (SHRSP); assay: Hemorheology in SHRSP; assay type: in vivo, rat; conditions: for effect on blood hemorheology indexes / blood viscosity: compared with the model group
Experimental: 1) After the last dose, the rats were fasted for 6 hours, and blood samples were collected by blood sampling in eyeground. After decollation, the whole brains of the rats were detached at ice trays for use.
2) Blood of 3 mL was dropped rapidly in a cuvette with 1 mL 0.074% heparin and mixed. The whole blood viscosity, plasma viscosity, red blood cell (RBC) aggregation index and RBC deformation index were determined with a hemorheology detector according to its specifications.
(§1) 2) Hemorheology: including whole blood viscosity, plasma viscosity, RBC aggregation index, RBC deformation index and platelet aggregation ratio.

[3] = test system: TNF-α, IL-1β, ICAM-1, VCAM-1, iNOS, AQP-4; assay: Expression of TNF-α, IL-1β, ICAM-1, VCAM-1, iNOS and AQP-4 in ischemic cerebral tissue (FIG. 2); assay type: in vivo, rat; conditions: 24 h after ischemia, 3 mg/kg, 10 mg/kg, 30 mg/kg in early stage of ischemia
Source text: B is a statistic chart that quantifies the expression of TNF-α, IL-1β, ICAM-1, VCAM-1, iNOS and AQP-4 with β-actin as internal standard.
With β-actin as internal standard, the expressions of TNF-α, IL-1β, ICAM-1, VCAM-1, iNOS, AQP-4 were quantified, and the inhibition effects of pinocembrin racemate on the above proteins were seen intuitively.

[4] = test system: Spontaneously Hypertensive Rats of Stroke Prone (SHRSP); assay: Brain water content in SHRSP; assay type: in vivo, rat; conditions: (wet weight−dry weight)/wet weight×100%
Experimental: 6) The whole brain tissues were weighed one by one, dried in a vacuum over at 110±5° C. for 48 hours, and then weighed again.
5) Brain water content: according to the weights of whole brain tissue before and after taken into the vacuum oven, the data were applied to the following formula and calculated:
Brain water content=(wet weight−dry weight)/wet weight×100%

[5] = test system: Spontaneously Hypertensive Rats of Stroke Prone (SHRSP); assay: Platelet aggregation ratio in SHRSP; assay type: in vivo, rat; conditions: for effect on platelet aggregation ratio: compared with the model group
Experimental: 3) Blood of 2 mL was dropped rapidly in a cuvette with 0.2 mL 0.13 mol/L
Sodium citrate) and mixed. The mixture was centrifuged for 10 min at 1000 rpm and platelet aggregation ratio was determined with a platelet aggregation meter according to its specifications.
as §1

[6] = test system: Spontaneously Hypertensive Rats of Stroke Prone (SHRSP); conditions: for NUMBER OF RATS After experiment: 10 before experiment; for effect on time of stroke onset (prophylaxis): compared with the model group

Row | Structure (SMILES) | RBC aggregation index ([2]; 3 mg/kg) | RBC deformation index ([2]; 3 mg/kg) | plasma specific viscosity ([2]; 3 mg/kg) | whole blood viscosity 5 (l/s) ([2]; 3 mg/kg) | whole blood viscosity 20 (l/s) ([2]; 3 mg/kg) | RBC aggregation index ([2]; 10 mg/kg) | RBC deformation index ([2]; 10 mg/kg) | plasma specific viscosity ([2]; 10 mg/kg) | whole blood viscosity 5 (l/s) ([2]; 10 mg/kg) | whole blood viscosity 20 (l/s) ([2]; 10 mg/kg) | RBC aggregation index ([2]; 30 mg/kg) | RBC deformation index ([2]; 30 mg/kg) | plasma specific viscosity ([2]; 30 mg/kg) | whole blood viscosity 5 (l/s) ([2]; 30 mg/kg) | whole blood viscosity 20 (l/s) ([2]; 30 mg/kg) | Brain water content ([4]; 3 mg/kg) | Brain water content ([4]; 10 mg/kg) | Change of platelet aggregation ([5]; 3 mg/kg) | TIME OF STROKE ONSET ([6]; 3 mg/kg) [days] | NUMBER OF RATS After experiment ([6]; 3 mg/kg) | other results
1 | O=C1CC(c2ccccc2)Oc2cc(O)cc(O)c21 (racemic) [Pinocembrin racemate, pinocembrin racemate] | 8.84 ± 0.63 | 0.183 ± 0.028 | 2.17 ± 0.28 | 14.81 ± 2.13 | 4.66 ± 0.34 | 8.36 ± 1.39 | 0.219 ± 0.031 | 2.01 ± 0.49 | 12.01 ± 2.46 | 4.12 ± 0.57 | 7.84 ± 0.63 | 0.222 ± 0.028 | 1.99 ± 0.28 | 10.95 ± 1.30 | 3.89 ± 0.28 | 79.51 ± 0.42 | 79.08 ± 0.67 | 25.1 ± 3.0 | 40.1 ± 8.7 | 10 | score of neurological symptoms after stroke onset ([1]; high dose (30 mg/kg/d), within 2-14 days after onset): below 1.6; score of neurological symptoms after stroke onset ([1]; middle dose (10 mg/kg/d), within 2-14 days after onset): < 2.3; effect on blood hemorheology indexes / blood viscosity [2]: decrease blood viscosity in a dose-dependent manner; expression of adhesion molecules ICAM-1 and VCAM-1 in cerebral ischemic tissue [3]: inhibited the expression of TNF-α and IL-1β in some extents; Brain water content ([4]; 30 mg/kg): 78.67 ± 0.60; Change of platelet aggregation ([5]; 10 mg/kg): 23.8 ± 2.9; Change of platelet aggregation ([5]; 30 mg/kg): 22.3 ± 3.5; effect on platelet aggregation ratio [5]: resist platelet aggregation in a dose-dependent manner; effect on survival ratio after stroke (treatment) [6]: dose-dependently increase survival ratio after stroke; TIME OF STROKE ONSET ([6]; 10 mg/kg): 42.7 ± 7.2 days; NUMBER OF RATS After experiment ([6]; 10 mg/kg): 10; CAUSES OF DEATH: ischemic stroke (number of rats) ([6]; 30 mg/kg): Ischemic stroke: 1; TIME OF STROKE ONSET ([6]; 30 mg/kg): 43.9 ± 6.4 days; NUMBER OF RATS After experiment ([6]; 30 mg/kg): 9; effect on time of stroke onset (prophylaxis) [6]: delay the time of stroke onset in dose-dependent manner
2 | O=C1C[C@H](c2ccccc2)Oc2cc(O)cc(O)c21 [(R)-pinocembrin] | 8.50 ± 2.11 | 0.144 ± 0.405 | 2.60 ± 0.94 | 15.20 ± 1.82 | 5.06 ± 1.45 | 8.25 ± 2.41 | 0.184 ± 0.100 | 2.30 ± 0.63 | 14.39 ± 1.84 | 4.45 ± 0.71 | 8.12 ± 0.88 | 0.219 ± 0.104 | 2.09 ± 0.51 | 12.24 ± 3.16 | 4.28 ± 0.66 | 79.55 ± 0.55 | 79.54 ± 0.53 | 25.9 ± 1.7 | 37.7 ± 8.4 | 9 | Brain water content ([4]; 30 mg/kg): 79.00 ± 0.14; Change of platelet aggregation ([5]; 10 mg/kg): 25.4 ± 4.3; Change of platelet aggregation ([5]; 30 mg/kg): 23.9 ± 6.1; effect on survival ratio after stroke (treatment) [6]: has this activity only when administered by high dose; CAUSES OF DEATH: ischemic stroke (number of rats) ([6]; 3 mg/kg): ischemic stroke: 1; CAUSES OF DEATH: hemorrhagic stroke (number of rats) ([6]; 10 mg/kg): hemorrhagic stroke: 1; CAUSES OF DEATH: ischemic stroke (number of rats) ([6]; 10 mg/kg): ischemic stroke: 2; TIME OF STROKE ONSET ([6]; 10 mg/kg): 39.8 ± 7.8 days; NUMBER OF RATS After experiment ([6]; 10 mg/kg): 7; CAUSES OF DEATH: ischemic stroke (number of rats) ([6]; 30 mg/kg): ischemic stroke: 3; TIME OF STROKE ONSET ([6]; 30 mg/kg): 41.8 ± 6.9 days; NUMBER OF RATS After experiment ([6]; 30 mg/kg): 7
3 | O=C1C[C@@H](c2ccccc2)Oc2cc(O)cc(O)c21 [(S)-pinocembrin, reference compound] | 14.45 ± 1.13 | 0.101 ± 0.030 | 2.79 ± 0.42 | 15.39 ± 1.20 | 5.78 ± 0.06 | 13.07 ± 1.13 | 0.109 ± 0.082 | 2.65 ± 0.42 | 15.13 ± 3.06 | 5.49 ± 0.43 | 12.50 ± 2.11 | 0.120 ± 0.405 | 2.47 ± 0.15 | 14.90 ± 3.32 | 4.96 ± 1.26 | 79.95 ± 0.68 | 79.75 ± 0.81 | 26.7 ± 1.3 | 34.3 ± 6.9 | 7 | effect on blood hemorheology indexes / blood viscosity [2]: no activity at all; Brain water content ([4]; 30 mg/kg): 79.67 ± 0.73; Change of platelet aggregation ([5]; 10 mg/kg): 26.5 ± 4.1; Change of platelet aggregation ([5]; 30 mg/kg): 25.7 ± 5.4; effect on platelet aggregation ratio [5]: no activity; effect on survival ratio after stroke (treatment) [6]: no significant activity; CAUSES OF DEATH: ischemic stroke (number of rats) ([6]; 3 mg/kg): ischemic stroke: 3; CAUSES OF DEATH: hemorrhagic stroke (number of rats) ([6]; 10 mg/kg): hemorrhagic stroke: 2; CAUSES OF DEATH: ischemic stroke (number of rats) ([6]; 10 mg/kg): ischemic stroke: 2; TIME OF STROKE ONSET ([6]; 10 mg/kg): 37.6 ± 7.3 days; NUMBER OF RATS After experiment ([6]; 10 mg/kg): 6; CAUSES OF DEATH: ischemic stroke (number of rats) ([6]; 30 mg/kg): ischemic stroke: 3; TIME OF STROKE ONSET ([6]; 30 mg/kg): 41.5 ± 5.8 days; NUMBER OF RATS After experiment ([6]; 30 mg/kg): 7; effect on time of stroke onset (prophylaxis) [6]: no activity
4 | COCCOC(=O)C1=C(C)NC(C)=C(C(=O)OC(C)C)C1c1cccc([N+](=O)[O-])c1 (stereo not shown) [Nimodipine, reference compound] | 8.69 ± 1.01 | 0.213 ± 0.03 | 1.98 ± 0.29 | 11.84 ± 2.44 | 4.64 ± 0.92 | – | – | – | – | – | – | – | – | – | – | 78.82 ± 0.58 | – | 20.1 ± 2.8 | 41.6 ± 12.8 | 10 | score of neurological symptoms after stroke onset ([1]; 3 mg/kg, after 6 days): below 2.2
